# Test results: the supplement of paper PMC8728848
# The list shows a part of the results.
# B1: a L Fucosidase (Streptosporangium roseum), D2B1P1_STRRD (protein)
# chain: MRRKLLLVPAVGLLVIGSIFATQPVASADTPPVYEPTVESLNSHPVPQWFNDDKFGIFIHWGAYSVPAWGPRGSYAEWYGNYMNAGGSATNAHHKATYGQDFNYDAFLQQWKAEKFDPADWVKLFKDAGAKYFVLTSKHHEGMALWDSKSSGRDSVDLGPGRDLAKELFDAARKDEAKLKAGFYYSLYEWYNPAYTGRPATNPYTGAEIPYTGAPGGGDYVKDYMLPQMRELIDGYDPDIIWCDGQWEKPASYWNTAGVIADYYNKALNSGKEVAVANRCKIQSGNLDSPELDFQTPEYTVKPDIDPVKWESSRGIAHSYGYNQNEPEEDHLTSDQLVDSLVDIVSKNGNLLLDIGPKADGTIPEIQRQRLLDIGAWLKANGEAIYGTTYWNRAEEKGGPDDVRYTAKDATLYATALKWPGEQLTLGADLPVDHSTRITMLGSGARLSWSRDEQGRVVVNTPQEAGKHAYVFKIETPGVRSLLRTSSSLAKEIAPGRTISGELTVTNPGKRHTPATKLSLTVPQGWTATLGAPRVRPLGPGESVKVPISVSAPEGVAPAPYTLGLYQRTGRMGTTTALPLTVNRPNLSLGKPATQKSTGYDAPASRAVDGNTGGDWSAGSTTHTAEPEKQAWWQVDLGASARLDSVDVWNRLDCCADRLKDFWVMASDQPFTTDDLDQARTAPGVTAVHVGEQAGSPSKVKLPEGTRGRYVRIQLASPSNPLSLAEVQVRGSMARPNLSLGKPATQKSTGYDAPASRAVDGNTGGDWSAGSTTHTAEPEKQAWWQVDLGASARLDSVDVWNRLDCCADRLKDFWVMASDQPFTTDDLDQARTAPGVTAVHVGEQAGSPSKVKLPEGTRGRYVRIQLASPSNPLSLAEVQVRLEHHHHHHS
# Assays:
# Experiment in all cases: glycan array binding signal (z-score within array); higher = stronger binding
# Settings in all cases: glycan notation: IUPAC condensed, linker removed
# [1] = target: Gal(b1-4)GalNAc(b1-3)[Fuc(a1-2)]Gal(b1-4)GlcNAc
# Summary of the method: (§1)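 Columns mapping to the same glycan were averaged after glycan names were converted to IUPAC-condensed notation. The data come from 3228 arrays in the Consortium for Functional Glycomics database, limited to those with an available protein sequence. Binding is reported as a within-array Z-score averaged across arrays of one protein sequence and across linkers.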
# Gal(b1-4)Glc = target: Gal(b1-4)Glc
# Summary of the method: as §1
# Gal(b1-4)Glc6S = target: Gal(b1-4)Glc6S
# Summary of the method: as §1
# Gal(b1-4)GlcNAc = target: Gal(b1-4)GlcNAc
# Summary of the method: as §1
# [2] = target: Gal(b1-4)GlcNAc(a1-6)Gal(b1-4)GlcNAc
# Summary of the method: as §1
# Gal(b1-4)GlcNAc(b1-2)Man = target: Gal(b1-4)GlcNAc(b1-2)Man
# Summary of the method: as §1
# [3] = target: Gal(b1-4)GlcNAc(b1-2)Man(a1-3)Man(b1-4)GlcNAc(b1-4)GlcNAc
# Summary of the method: as §1
# [4] = target: Gal(b1-4)GlcNAc(b1-2)Man(a1-3)[Gal(b1-4)GlcNAc(b1-2)Man(a1-6)]Man(b1-4)GlcNAc(b1-4)GlcNAc
# Summary of the method: as §1
# [5] = target: Gal(b1-4)GlcNAc(b1-2)Man(a1-3)[Gal(b1-4)GlcNAc(b1-2)Man(a1-6)]Man(b1-4)GlcNAc(b1-4)[Fuc(a1-6)]GlcNAc
# Summary of the method: as §1
# [6] = target: Gal(b1-4)GlcNAc(b1-2)Man(a1-3)[Gal(b1-4)GlcNAc(b1-2)Man(a1-6)][Gal(b1-4)GlcNAc(b1-4)]Man(b1-4)GlcNAc(b1-4)[Fuc(a1-6)]GlcNAc
# Summary of the method: as §1
# [7] = target: Gal(b1-4)GlcNAc(b1-2)Man(a1-3)[Gal(b1-4)GlcNAc(b1-2)Man(a1-6)][GlcNAc(b1-4)]Man(b1-4)GlcNAc(b1-4)[Fuc(a1-6)]GlcNAc
# Summary of the method: as §1
# [8] = target: Gal(b1-4)GlcNAc(b1-2)Man(a1-3)[GlcNAc(b1-2)Man(a1-6)]Man(b1-4)GlcNAc(b1-4)GlcNAc
# Summary of the method: as §1
# [9] = target: Gal(b1-4)GlcNAc(b1-2)Man(a1-3)[GlcNAc(b1-4)][Gal(b1-4)GlcNAc(b1-2)Man(a1-6)]Man(b1-4)GlcNAc(b1-4)GlcNAc
# Summary of the method: as §1
# [10] = target: Gal(b1-4)GlcNAc(b1-2)Man(a1-3)[Man(a1-6)]Man(b1-4)GlcNAc(b1-4)GlcNAc
# Summary of the method: as §1
# [11] = target: Gal(b1-4)GlcNAc(b1-2)Man(a1-6)Man(b1-4)GlcNAc(b1-4)GlcNAc
# Summary of the method: as §1
# [12] = target: Gal(b1-4)GlcNAc(b1-2)Man(a1-6)[GlcNAc(b1-2)Man(a1-3)]Man(b1-4)GlcNAc(b1-4)GlcNAc
# Summary of the method: as §1
# [13] = target: Gal(b1-4)GlcNAc(b1-2)Man(a1-6)[Man(a1-3)]Man(b1-4)GlcNAc(b1-4)GlcNAc
# Summary of the method: as §1
# [14] = target: Gal(b1-4)GlcNAc(b1-2)[Gal(b1-4)GlcNAc(b1-4)]Man(a1-3)[Gal(b1-4)GlcNAc(b1-2)Man(a1-6)]Man(b1-4)GlcNAc(b1-4)GlcNAc
# Summary of the method: as §1
# [15] = target: Gal(b1-4)GlcNAc(b1-2)[Gal(b1-4)GlcNAc(b1-4)]Man(a1-3)[Gal(b1-4)GlcNAc(b1-2)[Gal(b1-4)GlcNAc(b1-6)]Man(a1-6)]Man(b1-4)GlcNAc(b1-4)GlcNAc
# Summary of the method: as §1
# [16] = target: Gal(b1-4)GlcNAc(b1-2)[Gal(b1-4)GlcNAc(b1-4)]Man(a1-3)[GlcNAc(b1-4)][Gal(b1-4)GlcNAc(b1-2)Man(a1-6)]Man(b1-4)GlcNAc(b1-4)GlcNAc
# Summary of the method: as §1
# [17] = target: Gal(b1-4)GlcNAc(b1-2)[Gal(b1-4)GlcNAc(b1-4)]Man(a1-3)[GlcNAc(b1-4)][Gal(b1-4)GlcNAc(b1-2)[Gal(b1-4)GlcNAc(b1-6)]Man(a1-6)]Man(b1-4)GlcNAc(b1-4)GlcNAc
# Summary of the method: as §1
# [18] = target: Gal(b1-4)GlcNAc(b1-2)[Gal(b1-4)GlcNAc(b1-6)]Man(a1-6)[Gal(b1-4)GlcNAc(b1-2)Man(a1-3)]Man(b1-4)GlcNAc(b1-4)GlcNAc
# Summary of the method: as §1
# [19] = target: Gal(b1-4)GlcNAc(b1-2)[Gal(b1-4)GlcNAc(b1-6)]Man(a1-6)[Gal(b1-4)GlcNAc(b1-2)Man(a1-3)]Man(b1-4)GlcNAc(b1-4)[Fuc(a1-6)]GlcNAc
# Summary of the method: as §1
# [20] = target: Gal(b1-4)GlcNAc(b1-2)[Gal(b1-4)GlcNAc(b1-6)]Man(a1-6)[GlcNAc(b1-4)][Gal(b1-4)GlcNAc(b1-2)Man(a1-3)]Man(b1-4)GlcNAc(b1-4)GlcNAc
# Summary of the method: as §1
# [21] = target: Gal(b1-4)GlcNAc(b1-2)[Gal(b1-4)GlcNAc(b1-6)]Man(a1-6)[GlcNAc(b1-4)][Gal(b1-4)GlcNAc(b1-2)[Gal(b1-4)GlcNAc(b1-4)]Man(a1-3)]Man(b1-4)GlcNAc(b1-4)[Fuc(a1-6)]GlcNAc
# Summary of the method: as §1
# [22] = target: Gal(b1-4)GlcNAc(b1-3)Gal(b1-3)GalNAc
# Summary of the method: as §1
# [23] = target: Gal(b1-4)GlcNAc(b1-3)Gal(b1-3)GlcNAc
# Summary of the method: as §1
# [24] = target: Gal(b1-4)GlcNAc(b1-3)Gal(b1-4)Glc
# Summary of the method: as §1
# [25] = target: Gal(b1-4)GlcNAc(b1-3)Gal(b1-4)GlcNAc
# Summary of the method: as §1
# [26] = target: Gal(b1-4)GlcNAc(b1-3)Gal(b1-4)GlcNAc(b1-2)Man(a1-3)[Gal(b1-4)GlcNAc(b1-3)Gal(b1-4)GlcNAc(b1-2)Man(a1-6)]Man(b1-4)GlcNAc(b1-4)GlcNAc
# Summary of the method: as §1
binder,measurement,setting,value
B1,glycan array binding signal (z-score),[1],-0.503
same,glycan array binding signal (z-score),Gal(b1-4)Glc,-0.181
same,glycan array binding signal (z-score),Gal(b1-4)Glc6S,-0.446
same,glycan array binding signal (z-score),Gal(b1-4)GlcNAc,-0.42
same,glycan array binding signal (z-score),[2],-0.439
same,glycan array binding signal (z-score),Gal(b1-4)GlcNAc(b1-2)Man,0.742
same,glycan array binding signal (z-score),[3],0.732
same,glycan array binding signal (z-score),[4],0.443
same,glycan array binding signal (z-score),[5],-0.175
same,glycan array binding signal (z-score),[6],1.72
same,glycan array binding signal (z-score),[7],1.9
same,glycan array binding signal (z-score),[8],-0.371
same,glycan array binding signal (z-score),[9],-0.239
same,glycan array binding signal (z-score),[10],1.25
same,glycan array binding signal (z-score),[11],-0.228
same,glycan array binding signal (z-score),[12],-0.121
same,glycan array binding signal (z-score),[13],-0.263
same,glycan array binding signal (z-score),[14],-0.455
same,glycan array binding signal (z-score),[15],-0.478
same,glycan array binding signal (z-score),[16],-0.258
same,glycan array binding signal (z-score),[17],-0.164
same,glycan array binding signal (z-score),[18],-0.309
same,glycan array binding signal (z-score),[19],-0.467
same,glycan array binding signal (z-score),[20],0.002
same,glycan array binding signal (z-score),[21],0.133
same,glycan array binding signal (z-score),[22],-0.541
same,glycan array binding signal (z-score),[23],-0.307
same,glycan array binding signal (z-score),[24],-0.33
same,glycan array binding signal (z-score),[25],-0.184
same,glycan array binding signal (z-score),[26],0.009
